Measurements from the supplement of paper PMC4967469.
Lines with a small IC50 respond at low doses; fits outside the tested doses are given as limits. For AUC the same curve is integrated over the 256-fold range of doses and scaled to a fraction; it is 1 without any effect and falls as sensitivity rises. Any top dose called inferred was calculated from the reported fits.

The cell lines below were run with COc1ncc(-c2ccc3nccc(-c4ccnnc4)c3c2)cc1NS(=O)(=O)c1ccc(F)cc1F [GSK2126458] (assay: Viability of human cancer cell lines after 72 h of drug (GDSC screen)). Settings: top dose inferred.
Protocol: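 Human cancer cell lines in 384-well plates, medium with 10% serum, drug for 72 h over a 256-fold dose range (nine 2-fold or five 4-fold steps up to the top dose). Adherent lines were fixed and stained with the nucleic acid dye Syto60, suspension lines read with resazurin; signal relative to control wells, capped at 0 and 100%. One two-parameter sigmoid per drug and line, fitted in a mixed model over all curves with the slope shared within a line.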

| Cell Line | AUC | IC50 |
| --- | --- | --- |
| KYSE-270 (oesophagus, adherent, top dose 0.128 µM) | 0.822 | 60.8 nM |
| KYSE-410 (oesophagus, adherent, top dose 0.128 µM) | 0.672 | 24.9 nM |
| KYSE-450 (oesophagus, adherent, top dose 0.128 µM) | 0.428 | 5.15 nM |
| KYSE-510 (oesophagus, adherent, top dose 0.128 µM) | 0.913 | > 128 nM |
| KYSE-520 (oesophagus, adherent, top dose 0.128 µM) | 0.632 | 21.1 nM |
| L-363 (myeloma, suspension, top dose 0.128 µM) | 0.464 | 6.49 nM |
| L-428 (Hodgkin lymphoma, suspension, top dose 0.128 µM) | 0.89 | 116 nM |
| L-540 (Hodgkin lymphoma, suspension, top dose 0.128 µM) | 0.906 | > 128 nM |
| L-1236 (Hodgkin lymphoma, suspension, top dose 0.128 µM) | 0.889 | 106 nM |
| LAMA-84 (chronic myeloid leukaemia, suspension, top dose 0.128 µM) | 0.721 | 34.3 nM |
| LAN-6 (neuroblastoma, adherent, top dose 0.128 µM) | 0.83 | 102 nM |
| LB373-MEL-D (melanoma, adherent, top dose 0.128 µM) | 0.968 | > 128 nM |
| LB771-HNC (head and neck, adherent, top dose 0.128 µM) | 0.659 | 24.8 nM |
| LB831-BLC (bladder, adherent, top dose 0.128 µM) | 0.86 | 110 nM |
| LB996-RCC (kidney, adherent, top dose 0.128 µM) | 0.932 | > 128 nM |
| LB1047-RCC (kidney, adherent, top dose 0.128 µM) | 0.605 | 16.1 nM |
| LB2241-RCC (kidney, adherent, top dose 0.128 µM) | 0.982 | > 128 nM |
| LB2518-MEL (melanoma, adherent, top dose 0.128 µM) | 0.892 | > 128 nM |
| LC4-1 (lymphoblastic leukaemia, suspension, top dose 0.128 µM) | 0.354 | 3.01 nM |

| Cell Line | AUC | IC50 |
| --- | --- | --- |
| LC-1-sq (lung squamous cell carcinoma, adherent, top dose 0.128 µM) | 0.533 | 9.98 nM |
| LC-2-ad (lung adenocarcinoma, adherent, top dose 0.128 µM) | 0.53 | 9.7 nM |
| LCLC-97TM1 (large cell lung carcinoma, adherent, top dose 0.128 µM) | 0.484 | 7.19 nM |
| LCLC-103H (large cell lung carcinoma, adherent, top dose 0.128 µM) | 0.722 | 31.7 nM |
| LK-2 (lung squamous cell carcinoma, adherent, top dose 0.128 µM) | 0.882 | 123 nM |
| LN-18 (glioma, adherent, top dose 0.128 µM) | 0.967 | > 128 nM |
| LN-229 (glioma, adherent, top dose 0.128 µM) | 0.951 | > 128 nM |
| LN-405 (glioma, adherent, top dose 0.128 µM) | 0.642 | 22 nM |
| LNCaP-Clone-FGC (prostate, adherent, top dose 0.128 µM) | 0.61 | 16.8 nM |
| LNZTA3WT4 (glioma, adherent, top dose 0.128 µM) | 0.856 | 100 nM |
| LOU-NH91 (lung squamous cell carcinoma, adherent, top dose 0.128 µM) | 0.957 | > 128 nM |
| LOUCY (T-cell lymphoblastic leukaemia, suspension, top dose 1.024 µM) | 0.211 | 11.2 nM |
| LOXIMVI (melanoma, semi-adherent, top dose 0.128 µM) | 0.782 | 47.6 nM |
| LP-1 (myeloma, suspension, top dose 0.128 µM) | 0.448 | 5.94 nM |
| LS-123 (large intestine, adherent, top dose 0.128 µM) | 0.672 | 28.5 nM |
| LS-180 (large intestine, adherent, top dose 0.128 µM) | 0.829 | 95.3 nM |
| LS-411N (large intestine, adherent, top dose 1.024 µM) | 0.373 | 26.5 nM |
| LS-513 (large intestine, adherent, top dose 1.024 µM) | 0.591 | 115 nM |
| LS-1034 (large intestine, adherent, top dose 0.128 µM) | 0.715 | 34.8 nM |
